{"source": "ChEMBL document CHEMBL4888484", "about": "“Replenishing the malaria drug discovery pipeline: Screening and hit evaluation of the MMV Hit Generation Library 1 (HGL1) against asexual blood stage Plasmodium falciparum ,using a nano luciferase reporter read-out” (2022)", "note": "About 540 (0.36%) of roughly 150,000 compounds showed an effect of 50% or more. This is one part of the list.", "data": [{"system": "Plasmodium falciparum", "test": "Primary screen in NF54 nanoGlo assay, in single point, at 2uM, 72h; a lower Z score goes with more inhibition", "type": "functional, Erythrocyte", "conditions": "timepoint 72 hour", "units": {"% Inhibition": "%"}, "values": [{"smiles": "CC(C)N(CC(=O)N1CCn2cccc2[C@H]1c1cccc(Oc2ccccc2)c1)C(=O)C(c1ccccc1)c1ccccc1", "% Inhibition": -6, "Z score": 0.65}, {"smiles": "C[C@@H](c1ccccc1)N(C(=O)CN1CCC(=O)NC1=O)C1CCCC1", "% Inhibition": 3, "Z score": -0.49}, {"smiles": "COc1ccccc1-c1cn2c(n1)CO[C@@H](CNC(C)C)C2", "% Inhibition": -11, "Z score": 1.41}, {"smiles": "O=S(=O)(Cc1ccon1)N1CCOCc2ccccc21", "% Inhibition": -6, "Z score": 0.87}, {"smiles": "O=C(NCCc1ccc2c(c1)OCCO2)c1ccccn1", "% Inhibition": -9, "Z score": 1.12}, {"smiles": "CC1CCS(=O)(=O)CCN1C(=O)N[C@@H]1C[C@H]1c1c(F)cccc1Cl", "note": "(stereo partly drawn)", "% Inhibition": 6, "Z score": -0.94}, {"smiles": "CCOC(=O)C1(F)CN(C(=O)C2CCCCC(=O)N2)CC12COC2", "note": "(stereo not drawn)", "% Inhibition": -7, "Z score": 0.84}, {"smiles": "O=C(c1cccc(S(=O)(=O)Nc2cccc(Cl)c2)c1)N1CCO[C@]2(CCOC2)C1", "% Inhibition": 17, "Z score": -2.22}, {"smiles": "COC(=O)[C@@H]1C[C@H](O)CCN1C(=O)Cc1csc(-c2ccccc2)n1", "% Inhibition": -11, "Z score": 1.67}, {"smiles": "O=C(Nc1cccc(CCN2CCCC2)c1)c1ccon1", "% Inhibition": -3, "Z score": 0.36}, {"smiles": "O=C(Cc1ncc[nH]1)NCC1(c2ccccc2Cl)CCOCC1", "% Inhibition": 1, "Z score": -0.28}, {"smiles": "CC(=O)Nc1cccc(S(=O)(=O)N[C@@H](C)c2nc(C(C)C)no2)c1", "% Inhibition": -12, "Z score": 1.92}, {"smiles": "Cc1ccc(C[C@H]2CCOC3(CCN(S(=O)(=O)c4c(C)nn(C)c4C)CC3)C2)cc1", "% Inhibition": -19, "Z score": 2.47}, {"smiles": "CN(C)c1nc(C#N)nc(N2CCOCC2)n1", "% Inhibition": -7, "Z score": 0.93}, {"smiles": "O=C(CNC(=O)c1cccc(Br)c1)Nc1ccc2c(c1)OCCCO2", "% Inhibition": -9, "Z score": 1.15}, {"smiles": "CC1=CCN(C(=O)NCC2(S(C)(=O)=O)CCCC2)CC1", "% Inhibition": 15, "Z score": -1.88}, {"smiles": "CCCCc1oc2ccccc2c1CN1CCC(N(C)C(C)=O)CC1", "% Inhibition": 6, "Z score": -0.66}, {"smiles": "CC(C)c1nnc(Cn2cncn2)s1", "% Inhibition": -14, "Z score": 2.21}, {"smiles": "C[C@@]1(C(=O)NCCc2ccccc2)CCCCC(=O)N1", "% Inhibition": -7, "Z score": 0.84}, {"smiles": "CC1(C)C[C@@H]1C(=O)N1CCC(c2ccccc2)CC1", "% Inhibition": 6, "Z score": -0.95}, {"smiles": "CC(C)(C)[C@H]1CCc2c(sc(NC(=O)CN3CCCC3)c2C#N)C1", "% Inhibition": 10, "Z score": -1.29}, {"smiles": "CO[C@H](C(=O)Nc1cncc(Br)c1O)C1CC1", "% Inhibition": -6, "Z score": 0.82}, {"smiles": "C[C@@H](C(=O)Nc1nccs1)N1CCN(c2cnccn2)CC1", "% Inhibition": 8, "Z score": -1.45}, {"smiles": "O=C(NCCN1CCCC1=O)c1cccc(-c2c[nH]cn2)c1", "% Inhibition": -3, "Z score": 0.4}, {"smiles": "Cn1c(CN2CCCCCC2)nnc1C1CCN(C(=O)Cn2cccn2)CC1", "% Inhibition": 0, "Z score": -0.01}, {"smiles": "CN(Cc1cnn(C)c1)C(=O)[C@@H]1CCCO1", "% Inhibition": -4, "Z score": 0.33}, {"smiles": "O=C(Nc1cccc(CNc2ncccn2)c1)c1ccco1", "% Inhibition": -4, "Z score": 0.39}, {"smiles": "CC(C)CCc1noc(CN[C@@H]2C(=O)NCC23CCOCC3)n1", "% Inhibition": -3, "Z score": 0.5}, {"smiles": "O=C(NCC1COc2ccccc2O1)[C@@H]1CCCN1C(=O)c1cccs1", "note": "(stereo partly drawn)", "% Inhibition": 0, "Z score": 0.05}, {"smiles": "C[C@@H](CC1(C#N)CCN(C(=O)OC(C)(C)C)CC1)NCC(F)F", "% Inhibition": -9, "Z score": 1.21}, {"smiles": "CCn1c(=O)c2c(ncn2Cc2ccc(OC)cc2)n(-c2ccccc2C)c1=O", "% Inhibition": 0, "Z score": 0.03}, {"smiles": "COc1ccc2cc(-c3nc4cc(C)cc(C)c4o3)ccc2c1", "% Inhibition": -15, "Z score": 1.34}, {"smiles": "CC(C)OC(C)(C)C(=O)Nc1ccn(Cc2ccncc2)n1", "% Inhibition": 3, "Z score": -0.47}, {"smiles": "O=C(Cc1ccc2[nH]c(=O)[nH]c2c1)N1CC(C2CCCCC2)C1", "% Inhibition": -9, "Z score": 1.29}, {"smiles": "CC1CN(Cc2nc3c(cnn3C)c(=O)[nH]2)CC(C)O1", "note": "(stereo not drawn)", "% Inhibition": -8, "Z score": 0.94}, {"smiles": "N#Cc1ccccc1-c1cc(C(=O)O)cc(S(=O)(=O)N2CCCCCC2)c1", "% Inhibition": -8, "Z score": 0.9}, {"smiles": "O=C(CC1=CCCCC1)N(CCC(F)(F)F)C1CCC1", "% Inhibition": -1, "Z score": 0.18}, {"smiles": "COc1ccc2c(c1)C(C(=O)NC1CS(=O)(=O)c3ccccc31)CC2", "note": "(stereo not drawn)", "% Inhibition": -3, "Z score": 0.53}, {"smiles": "COc1cccc(C2=Nc3cccnc3N(CC(=O)Nc3cccc(C(F)(F)F)c3)C(=O)C2)c1", "% Inhibition": -2, "Z score": 0.44}, {"smiles": "C=CCNC(=O)C(C)N1CCCC1C1CCCN1C(C)=O", "note": "(stereo not drawn)", "% Inhibition": -9, "Z score": 1.15}, {"smiles": "COc1ccccc1C(=O)N1CCN(c2cc(=O)n(C(C)C)c(=O)n2C(C)C)CC1", "% Inhibition": -5, "Z score": 0.71}, {"smiles": "Cn1c(=O)c2c(ncn2Cc2nc(C(F)(F)F)cs2)n(C)c1=O", "% Inhibition": -12, "Z score": 1.89}, {"smiles": "CCC(NC(=O)N1CCC(C)C(OC)C1)c1cccs1", "note": "(stereo not drawn)", "% Inhibition": 1, "Z score": -0.17}, {"smiles": "COc1cc(-c2noc(CCC(=O)N3CCC[C@@H]3CN)n2)cc(Cl)c1OC", "% Inhibition": -8, "Z score": 0.78}, {"smiles": "Cc1cccc2c1OCC[C@@H]2NC(=O)CNC(=O)c1ccc(F)cc1F", "% Inhibition": -9, "Z score": 0.9}, {"smiles": "O=C1C2ON(c3ccccc3)C(c3ccc(-c4ccc(Cl)cc4Cl)o3)C2C(=O)N1c1ccc(F)cc1", "note": "(stereo not drawn)", "% Inhibition": -11, "Z score": 1.19}, {"smiles": "O=C(Cn1nc(N2CCOCC2)c2ccccc2c1=O)Nc1ccccc1C(F)(F)F", "% Inhibition": -7, "Z score": 1.09}, {"smiles": "C=C(C)CN(C)C(=O)CC(=O)Nc1cc(C)cc(C)c1", "% Inhibition": 3, "Z score": -0.35}, {"smiles": "CCc1cc(C(=O)NC2CCCCC2)on1", "% Inhibition": -14, "Z score": 2.1}, {"smiles": "COC(=O)c1cccc(C#Cc2cccc(NC(=O)[C@H](C)Oc3ccccc3)c2)c1", "% Inhibition": -18, "Z score": 3.44}, {"smiles": "COCC(=O)N[C@H](C(=O)NC1CC1c1ccc(F)cc1F)C(C)C", "note": "(stereo partly drawn)", "% Inhibition": -21, "Z score": 1.93}, {"smiles": "CCNC(=O)C[C@H]1CCCCN1C(=O)CN1CCN(Cc2ccccc2)CC1", "% Inhibition": -7, "Z score": 0.71}, {"smiles": "COc1nc(C)nc2c(CN(C)C)c(C)[nH]c12", "% Inhibition": 37, "Z score": -4.72}, {"smiles": "O=c1c2cccnc2n(Cc2ccc(F)cc2)c(=O)n1C1CCCCC1", "% Inhibition": -6, "Z score": 1.18}, {"smiles": "C=CCN(CC(=O)N(Cc1ccccc1)Cc1ccc(C)o1)C(=O)c1ccc(F)cc1", "% Inhibition": 0, "Z score": 0.02}, {"smiles": "COCC(=O)N1CCN(Cc2csc(-c3ccc(Br)cc3)n2)CC1", "% Inhibition": -6, "Z score": 1.35}, {"smiles": "O=S(=O)(c1ccc2c(c1)CCC2)N1CC(n2ccnc2)C1", "% Inhibition": -4, "Z score": 0.56}, {"smiles": "CC[C@@H](CNC(=O)c1nccn1C)N1CCN(C)CC1", "% Inhibition": 4, "Z score": -0.43}, {"smiles": "CCC1=NO[C@@H](CN(C)Cc2nc(-c3ccccn3)no2)C1", "% Inhibition": 9, "Z score": -1.14}, {"smiles": "CCOC(=O)N1CCC(NC(=O)c2cccc(C)n2)CC1", "% Inhibition": 5, "Z score": -0.72}, {"smiles": "O=C(O)c1cnc(N2CCC(Cc3ccccc3)CC2)c(NS(=O)(=O)c2ccc(F)cc2)c1", "% Inhibition": -6, "Z score": 0.58}, {"smiles": "CC[C@@H](C(=O)N1CCCC1)N(c1nc(-c2ccc(C)cc2)cs1)c1ccccc1OC", "% Inhibition": -6, "Z score": 0.74}, {"smiles": "CC[C@H](NC(=O)c1cscn1)c1ccc(C)cn1", "% Inhibition": 10, "Z score": -1.88}, {"smiles": "Cc1noc(-c2ccc(C(C)(C)C)cc2)c1C(=O)NCCOc1ccccc1", "% Inhibition": 35, "Z score": -4.65}, {"smiles": "CCN(Cc1nn(-c2ccc(F)cc2)c2c1CN(Cc1ccc(F)cc1)CC2)C(=O)c1cccc(F)c1", "% Inhibition": -6, "Z score": 0.71}, {"smiles": "CCNC(=O)N1CCc2nc(N3CCc4ccccc4C3)nc(N3CCOCC3)c2C1", "% Inhibition": 5, "Z score": -0.7}, {"smiles": "Clc1cnc(N2CCN(Cc3cncnc3)CC2)nc1", "% Inhibition": -5, "Z score": 1.01}, {"smiles": "CCC(C)(CC)NC(=O)N1CC(c2ccccn2)C1", "% Inhibition": -12, "Z score": 1.56}, {"smiles": "O=C(Cc1ccsc1)NC1CCN(c2cnsn2)CC1", "% Inhibition": -9, "Z score": 1.18}, {"smiles": "CCCc1c(N[C@H]2CCN(C)C2=O)cnn1-c1cccc(F)c1", "% Inhibition": -7, "Z score": 0.63}, {"smiles": "O=C1NCCC[C@@H]1N1CCC2(CCCC2)CC1", "% Inhibition": 14, "Z score": -1.99}, {"smiles": "Cc1ccc2ncc(CN(C)CC(C)(C)S(C)(=O)=O)n2c1", "% Inhibition": 3, "Z score": -0.5}, {"smiles": "O=C1C[C@H](C(=O)N(CCc2ccccc2)C2CCCCC2)CN1", "% Inhibition": -15, "Z score": 1.49}, {"smiles": "N#Cc1ccc(NC2CCC3(CC2)OCCO3)nc1", "% Inhibition": 2, "Z score": -0.28}, {"smiles": "Cc1nnc(CC(=O)NCC2(c3ccccc3Cl)CCC2)s1", "% Inhibition": -11, "Z score": 1.49}, {"smiles": "CC(C)[C@H](NC(=O)CCCN1C(=O)c2ccncc2C1=O)c1nc2ccccc2n1C(C)C", "% Inhibition": -5, "Z score": 0.65}, {"smiles": "CCN1CCN(C2CN(C(=O)CC(C3CCC3)C3CCC3)C2)CC1", "% Inhibition": -7, "Z score": 1.39}, {"smiles": "CC(C)c1nnc(NC(=O)COc2ccc3c(c2)OCO3)s1", "% Inhibition": -9, "Z score": 1.66}, {"smiles": "CCOc1ccc(CN2CCC[C@@](F)(C(=O)N3CCOCC3)C2)cc1OC", "% Inhibition": -11, "Z score": 0.93}, {"smiles": "CN1CCN(S(=O)(=O)c2ccccc2CNC(=O)NC23CCCC2C3)CC1", "note": "(stereo not drawn)", "% Inhibition": -7, "Z score": 1.05}, {"smiles": "COc1c(CN[C@H]2CCCN(c3ccc(C#N)cc3F)C2)c(C)nn1C", "% Inhibition": -10, "Z score": 0.99}, {"smiles": "COc1cc([C@H](C(=O)Nc2ccc(N(C)C)cc2)N(Cc2ccc(C)cc2)C(=O)Cc2ccccc2)cc(OC)c1OC", "% Inhibition": 20, "Z score": -2.52}, {"smiles": "[O-][S+]1c2ccc(Cl)cc2CC(N2CCN(CCO)CC2)c2ccccc21", "note": "(stereo not drawn)", "% Inhibition": -27, "Z score": 3.21}, {"smiles": "CN(Cc1nccn1C(F)F)[C@@]1(CO)CCOC1", "% Inhibition": -10, "Z score": 1.47}]}]}
